# Reference: PubChem BioAssay AID361 (National Center for Advancing Translational Sciences (NCATS), 2006)
# About 600 (1.2%) of roughly 51,000 compounds were called active. Inconclusive means that the source gave no clear call. Such entries were picked first, then a sample of the others. Cut-off read from the data, not from the text of the source: active = potency below about 11 µM; inconclusive = mostly about 12 µM to 25 µM; inactive = weaker than that;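 the screen sought inhibitors and activators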. No potency is given beside an inconclusive call; the fits are too rough.
# Test system: pyruvate kinase (Bacillus stearothermophilus)
# Assay: Pyruvate Kinase
# Details: purified pyruvate kinase, luminescence ATP production; ribose 5-phosphate activator present at AC10
# In short: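 Luminescence read-out: coupled luciferase detection of ATP formed after 2 h RT incubation of 10 nM enzyme with 2 mM PEP, 0.1 mM ADP, 0.7 nM ribose 5-phosphate, 50 mM imidazole pH 7.2, 7 mM MgCl2. Data normalized to full stimulation/inhibition controls.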
# Potency is the fitted concentration of half-maximal effect.
row,SMILES,Potency
1,CCOc1ccc(N2C(=O)CC(Sc3nccc(C)n3)C2=O)cc1 (stereo unspecified),inconclusive [increasing]
2,Fc1ccc(C(c2nnnn2C2CCCC2)N2CCN(Cc3ccncc3)CC2)cc1 (stereo unspecified),inactive: > 57 µM
3,Cn1c(=O)c2c3c(sc2n2c(SCC(=O)c4ccc(Cl)cc4)nnc12)COC(C)(C)C3,inactive: > 11.4 µM
4,CC(C)OC(=O)c1cc(NC(=O)C2C3CCC(O3)C2C(=O)O)cc(C(=O)OC(C)C)c1 (stereo unspecified),active: 6.13 µM
5,O=C(Nc1ccc2c(c1)OCCO2)C1CCCN(c2ncccn2)C1 (stereo unspecified),inconclusive [decreasing]
6,O=C(CNS(=O)(=O)c1cccc2nsnc12)NCc1ccc(Cl)cc1,inconclusive [increasing]
7,CCOC(=O)CSc1nnc2n(C3CCCCC3)c(=O)c3c4c(sc3n12)CCCC4,inconclusive [decreasing]
8,C(=N\n1cnnc1)/c1cn(-c2cccs2)nc1-c1ccccc1,inconclusive [decreasing]
9,COc1cccc(C(=O)Nc2cc(NC(=O)c3ccco3)ccc2OC)c1,inactive: > 57 µM
10,Cc1cc(C(=O)CSc2nnc(Cc3ccccc3)o2)c(C)n1Cc1ccc2c(c1)OCO2,inactive: > 57 µM
11,COc1ccc(N2C(=O)NC3CC2(C)Oc2ccc(Cl)cc23)cc1OC (stereo unspecified),inconclusive [increasing]
12,O=C(O)c1cccc(N2C(=O)c3cccnc3C2=O)c1,inconclusive [increasing]
13,Cc1nn2c3ccccc3nc2c2ccccc12,inconclusive [decreasing]
14,O=c1cc(Nc2ccc3c(c2)OCO3)[nH]c(=O)n1-c1ccc(Br)cc1,inactive: > 57 µM
15,CCc1c(C)nc2cc(-c3ccc(OC)cc3)[nH]n2c1=O,inconclusive [decreasing]
16,CS(=O)(=O)N(Cc1ccco1)Cc1ccccc1Cl,inconclusive [increasing]
17,Cc1ccc(CNC(=O)CCS(=O)(=O)c2cccc3nsnc23)cc1,inconclusive [increasing]
18,Cc1cccc(-n2ccnc2SCC(=O)Nc2nccs2)c1C,inconclusive [increasing]
19,Cn1c(CCN2CCCCC2)nc2cc(NS(=O)(=O)c3ccc(Cl)cc3)ccc21,inconclusive [increasing]
20,NC(=O)c1c(NC(=O)CSc2nnc(Cc3ccccc3)n2Cc2ccco2)sc2c1CCC2,inactive: > 57 µM
21,CSc1nnc2n(-c3ccccc3)c(=O)c3c4c(sc3n12)CCC4,active: 2.8 µM
